± gives the standard deviation of the averaged measurements. Some of the results follow.
tested on: PfAP2-LT AP2 domain (GST-tagged); assay: gcPBM binding intensity (ln(normalized median fluorescence intensity)); higher = stronger DNA binding
In short: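 Alexa488 anti-GST antibody, scanned at 488 nm, detected GST-tagged P. falciparum DNA-binding domains that had been expressed in E. coli and incubated for 1 h on an Agilent 4 × 180k array. The array carried primer-extended double-stranded 36-bp intergenic genomic probes and negative controls. Binding intensity is the highest Masliner-normalised natural-log median intensity across replicate spots of either orientation of each probe.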

Sequence | gcPBM binding intensity (ln)
ATATGTATGTATTTATTATTGTGCATTGTATTTATA [CACACA_negctrl_site664] | 9.12 ± 0.43
ATATATTTATATATTTGTACATATAATATCTTCTTT [XGTACX_site8504] | 8.78 ± 0.45
GTCGTATAATTTTCAGTGCAATATTTGAATAAATGG [GTGCAC_site9404] | 8.71 ± 0.43
ATTTATTAATTACCATGTATAAAAAATTATATAATA [CACACA_negctrl_site581] | 8.25 ± 0.4
ATACAATACAAAAACACACACAAAAAAAGAAAAGGA [CACACA_site2156] | 9.63 ± 0.43
AGCAACTCAATATATATAAGAATTGTAATATAATAT [GTGCAC_negctrl_site429] | 8.7 ± 0.54
AAAAAAAAAAAATACACACACATATTTATTTATATA [CACACA_site7114] | 9.22 ± 0.33
AAAAAAGGTAAAAAAAGTACAAAAAAAAAATTAAAA [XGTACX_site6993] | 8.65 ± 0.61
AGTAGTCTGGAGAAAAGTACATAGTATCTGATAACC [XGTACX_site2028] | 8.86 ± 0.5
TATTATAATATATTTGTGCACATAATATCTCCGCTA [GTGCAC_site9799] | 8.95 ± 0.53
AAAAAGATAAAATATACATGCATATATAATATACAT [TGCATGCA_site488] | 8.94 ± 0.4
TGCTTATATATAAATTGTACTGAAAGAATAAAATAA [XGTACX_site4025] | 8.47 ± 0.4
TTTATTTTAAATGGGTGTACTCATTCCTTATGGAAG [XGTACX_site1397] | 8.42 ± 0.58
TAATAGATGTTATGAAGTACTAAATATTAAATATAA [XGTACX_site5717] | 8.59 ± 0.45
AAAATAATTCATGTTGGTAATAAGACTCGAGGTGAA [CACACA_negctrl_site1054] | 8.82 ± 0.45
TTGACAGGAACGTTGGTGCACGTACTGTTTTTCTTT [GTGCAC_site9389] | 8.84 ± 0.39
TTTGGATAAAAAATATGTACACACATATAGATATCT [XGTACX_site5660] | 8.88 ± 0.32
GTATAATATTTTAATGCACACACACTAATAAAAAAA [CACACA_site8939] | 9.41 ± 0.36
AAGTATAAATAAAGGCGTACACATGTAAATTATATT [XGTACX_site126] | 9.28 ± 0.5

Sequence | gcPBM binding intensity (ln)
TGTTCATTTTTAAAATGTACATATATGTTGTTCCAT [XGTACX_site8444] | 8.92 ± 0.54
AAAACATAAATACATACACACATAATATAGATTAAT [CACACA_site6205] | 9.38 ± 0.4
TATATACAACGTTAAGCACACACAAAAAAAATTTAA [CACACA_site9013] | 9.15 ± 0.52
CATATGTATATGACTACACACAAGGGTGTACCTATA [CACACA_site6670] | 9.19 ± 0.44
TTAAAAATAAATTCATGTACATAATATATATATATA [XGTACX_site7908] | 8.68 ± 0.27
TTGCATTTATTATACACACACAAAAAAATATTTATA [CACACA_site6252] | 9.08 ± 0.33
ACGTATTTTTAAATATATGAATTATGTAACTTGTGA [CACACA_negctrl_site1446] | 8.53 ± 0.38
TATACTATTTAAATGTGTACTAAAAGAATATATTAT [XGTACX_site5238] | 8.53 ± 0.42
GAATATGTGATATTTTGTACATAAAAATAATATATA [XGTACX_site6398] | 8.7 ± 0.55
CTATATGTTAAATTCTCACACATTATTACAATTTAA [CACACA_site5979] | 8.66 ± 0.52
TTTTTTTTTTTGTTTAAACACACGAGCTTTCTTCTT [CACACA_site4085] | 9.06 ± 0.59
CATGTATTTTATATTACACACTAATATTATAGATAT [CACACA_site6819] | 8.71 ± 0.4
AAACATATAAACATATGTACATATAAACATATATAC [XGTACX_site5026] | 9.03 ± 0.38
ATATTCTTTTTATGTGGTACTAATTTTTTTTTTTTA [XGTACX_site3791] | 8.66 ± 0.57
TAAAACATAAGAGACACACACACATATATATATATA [CACACA_site3643] | 10.1 ± 0.16
TTTTTAAAACATCACTGTACCCGTTATGGTGAACAT [XGTACX_site3483] | 8.62 ± 0.49
AGTAAAAGAAAGCACACACACATGTATATAGGTATG [CACACA_site7759] | 9.87 ± 0.34
TTTTTAAATAATTGAAGTACACATTTCTCTAAGTTG [XGTACX_site2846] | 8.39 ± 0.46
TTTTTAATTATCTTTTCCCATGGTTTCTCCGTTTTT [XGTACX_negctrl_site39] | 8.93 ± 0.56

Sequence | gcPBM binding intensity (ln)
CAAAATAAAAATAACACACACATTTATATATATACA [CACACA_site1190] | 9.4 ± 0.39
ATATGTTTTGTTTACGTGCACTGCTTTGTTTATATA [GTGCAC_site9622] | 9.4 ± 0.45
AGCATATTATCATATTGTACATATTATAATATATAT [XGTACX_site3907] | 8.93 ± 0.38
ATTTCTCAATCTTAATGTACAAAAAAAAGGAAAAAG [XGTACX_site1210] | 8.49 ± 0.45
TAAAAATTTTAATAAACACACAATGAGATATTGAAT [CACACA_site5704] | 8.71 ± 0.43
AGCAAATCAGATAGTAGTACATTTAAATTAGACTTT [XGTACX_site4172] | 8.7 ± 0.52
TATATATATATATGTGCATGTAATGATTCAGCATCT [TGCATGCA_site803] | 9.69 ± 0.2
CACATATAGTTATATGCACACATCTTACACATCTAT [CACACA_site5937] | 9.44 ± 0.46
AACACAGATAAATTAACACACACACCCATATATATA [CACACA_site9310] | 9.85 ± 0.23
TAGCTTATTAATATCATACACACATAGATATATTTA [CACACA_site3105] | 8.77 ± 0.35
ATGAAATATCGGAACGCACACATAAATATATTTATA [CACACA_site2670] | 9.27 ± 0.45
TTGAACTCTCTTACGCGTACGTGTTATTATGAAAAT [XGTACX_site6265] | 8.98 ± 0.42
CAATTTGGGGTGTACACACACCTTATTTAAATTAAA [CACACA_site6663] | 8.86 ± 0.51
ATCATGTTATATACATGTACATATATATATATATAA [XGTACX_site609] | 9.19 ± 0.3
TTTTATTTTTTTAAATGTACACATATTAATGTAAGG [XGTACX_site319] | 8.43 ± 0.44
ATCATCCAAGATCTTACACACATATTAAATAAATAA [CACACA_site1473] | 8.95 ± 0.45
AAAAGGAATATAATCATTCAAAAATATAATATATAT [GTGCAC_negctrl_site551] | 8.62 ± 0.49
TTACATAATTTCTGCTGTACCAATTTTGAGAAGTTG [XGTACX_site4023] | 8.62 ± 0.5

— the supplement of paper PMC11417369
